± gives the standard deviation of the averaged measurements. Over roughly 33,000 sequences, “E-score (dimensionless, -0.5 to 0.5)” has its median near -0.046; the highest 2% begin near 0.36. The list shows a part of the results.
These sequences were tested on T1, SpTbr T-box DNA-binding domain (GST fusion) (assay: PBM E-score of 8-mer (E-score (dimensionless, -0.5 to 0.5)); Tbr is Tbrain of the sea star Patiria miniata (Pm) or the sea urchin Strongylocentrotus purpuratus (Sp); higher = stronger binding preference; most listed sequences are background and not binding sites). Settings: the construct has about 5 more residues each side.
T1 sequence: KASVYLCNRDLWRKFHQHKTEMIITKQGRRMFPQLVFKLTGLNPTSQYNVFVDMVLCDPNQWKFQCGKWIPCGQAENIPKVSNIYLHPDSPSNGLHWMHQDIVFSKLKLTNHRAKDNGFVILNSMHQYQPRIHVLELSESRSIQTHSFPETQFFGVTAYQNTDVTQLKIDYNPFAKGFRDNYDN
How it was run: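 Each ungapped 8-mer received an enrichment E-score from the Universal PBM Analysis Suite, averaged over duplicate arrays. The proteins were Tbr T-box DNA-binding domains, covering the whole T-box plus about five flanking residues, fused to GST and expressed in BL21 E. coli at 20 °C before glutathione affinity purification. Universal Agilent oligonucleotide arrays were made double-stranded by primer extension and incubated with 200 nM protein in PBS (pH 7.5). The arrays were then scanned and quantified, and every 8-mer was scored from probe intensities.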

| Sequence | PBM E-score of 8-mer |
| --- | --- |
| AGCTCAAC | -0.0474 ± 0.074 |
| AGTGACTG | 0.172 ± 0.0081 |
| ACCGTCGG | -0.252 ± 0.038 |
| ATCGCCGG | -0.086 ± 0.026 |
| AGTGCTGC | 0.0756 ± 0.0053 |
| CAGTTATC | 0.0747 ± 0.012 |
| AAAATCTA | 0.0815 ± 0.0069 |
| AAACTCTA | -0.0434 ± 0.028 |
| CAGGTTAA | -0.134 ± 0.11 |
| CTATGAGA | -0.252 ± 0.033 |
| ACGAGAGA | -0.106 ± 0.032 |
| ATGATGGC | -0.0598 ± 0.0071 |
| AGCTACAA | -0.161 ± 0.011 |
| AGCGGCCA | 0.0509 ± 0.027 |
| CGATCCCC | 0.12 ± 0.014 |
| AAAATAGA | -0.358 ± 0.028 |
| ATTCAGTC | -0.147 ± 0.033 |
| AAATCACA | 0.333 ± 0.03 |
| GATGCTAC | -0.0905 ± 0.087 |
| CCCGTGCC | -0.0819 ± 0.033 |
| CAAAAGTG | 0.257 ± 0.027 |
| CGCTGTCC | -0.224 ± 0.018 |
| GAGACTCC | -0.0351 ± 0.085 |
| AGGAGAGA | 0.00496 ± 0.029 |
| GTCAAGTA | 0.185 ± 0.016 |

| Sequence | PBM E-score of 8-mer |
| --- | --- |
| AAAGAGTG | 0.216 ± 0.048 |
| CACTGCGC | 0.196 ± 0.016 |
| GTCCACTA | -0.1 ± 0.0077 |
| AGTAAAAG | -0.0786 ± 0.051 |
| CGAAAGTC | 0.00178 ± 0.00011 |
| AACCCAGG | -0.22 ± 0.0083 |
| AGTCGGTA | 0.0634 ± 0.0058 |
| ATTGCGAA | 0.284 ± 0.041 |
| TGGAAGAA | -0.263 ± 0.024 |
| ATCATGCC | -0.225 ± 0.071 |
| ACTCTACC | -0.169 ± 0.019 |
| GGTGGTAA | 0.3496 ± 0.00075 |
| ATAATTAG | -0.0957 ± 0.013 |
| ACCATGTG | 0.28 ± 0.021 |
| TCCCATCA | -0.0491 ± 0.029 |
| AAAGCGTC | 0.175 ± 0.026 |
| GCGTGGAA | 0.176 ± 0.017 |
| GTACAAAC | -0.163 ± 0.0071 |
| GGCATGTA | -0.271 ± 0.038 |
| TATGGTAA | -0.207 ± 0.048 |
| GTAAGAAA | 0.00863 ± 0.026 |
| CATCCACC | -0.0953 ± 0.048 |
| CCAGACCG | -0.267 ± 0.075 |
| CATAACCA | -0.043 ± 0.017 |
| GTGAGTCA | 0.23905 ± 1.4e-05 |

| Sequence | PBM E-score of 8-mer |
| --- | --- |
| ATTAGTGA | 0.0863 ± 0.02 |
| AACGAGTC | -0.0837 ± 0.041 |
| AGCATTGG | -0.112 ± 0.011 |
| AGCCTCGC | -0.00325 ± 0.036 |
| AGCCCGGC | -0.0877 ± 0.11 |
| AAAGTACT | -0.197 ± 0.068 |
| CCCACAGC | 0.0158 ± 0.025 |
| GCGGAATA | -0.0725 ± 0.013 |
| GCATGAAC | 0.0836 ± 0.013 |
| CGGCGTTC | -0.0378 ± 0.017 |
| CCTAGTAG | -0.036 ± 0.12 |
| ATTGATAA | -0.189 ± 0.017 |
| CCCGACGA | -0.0481 ± 0.12 |
| CCTGGTAA | 0.0572 ± 0.0035 |
| CAAGACGG | -0.02 ± 0.1 |
| ACCGAATA | 0.0186 ± 0.046 |
| GTCCCGGA | -0.2 ± 0.059 |
| ACCATCGT | -0.0427 ± 0.071 |
| CAGATGGG | -0.107 ± 0.061 |
| CACCATGC | 0.232 ± 0.025 |
| AGCACAAA | -0.155 ± 0.039 |
| GAGTTTTA | 0.0474 ± 0.05 |
| ACACATAA | 0.269 ± 0.016 |
| CCCCTTAA | -0.192 ± 0.015 |
| TCTCGGCA | 0.0587 ± 0.028 |

| Sequence | PBM E-score of 8-mer |
| --- | --- |
| TCACGCGA | 0.3949 ± 0.0026 |
| AACGGGAG | 0.00903 ± 0.026 |
| GCACGCAC | 0.259 ± 0.029 |
| GCGGGACC | 0.00436 ± 0.015 |
| GAGCTTTA | -0.1915 ± 0.0013 |
| TAGACGGA | -0.272 ± 0.0051 |
| AAGCTGCT | -0.00363 ± 0.18 |
| ACACGTAG | 0.1948 ± 0.0013 |
| CCTCGAGA | -0.0435 ± 0.057 |
| ACCTCACT | 0.233 ± 0.069 |
| GAGGCTTA | -0.102 ± 0.039 |
| CGCAGTCC | -0.0737 ± 0.0086 |
| CTTCCAAC | -0.0709 ± 0.089 |
| GTGGCTTA | -0.0681 ± 0.11 |
| CGGTAGGC | 0.00743 ± 0.0063 |
| CGTAGCAA | -0.109 ± 0.088 |
| AGGGGAGA | -0.125 ± 0.0092 |
| AGTGTACA | -0.0268 ± 0.0072 |
| TTTTAAAA | -0.227 ± 0.021 |
| TATAGTAA | -0.1429 ± 0.0002 |
| CCCCCCTC | -0.318 ± 0.073 |
| TAGTACGA | -0.0812 ± 0.014 |
| CGAGTCGC | 0.145 ± 0.018 |
| AAGCGCAT | -0.179 ± 0.042 |
| ACCAATTA | -0.137 ± 0.013 |

| Sequence | PBM E-score of 8-mer |
| --- | --- |
| GACAACAC | 0.385 ± 0.0048 |
| TCCCGCAA | -0.238 ± 0.011 |
| CGTGACGA | 0.311 ± 0.029 |
| ACACTACA | 0.125 ± 0.0091 |
| ACGGAGGC | -0.238 ± 0.084 |
| GGAGTTGA | -0.008 ± 0.053 |
| GATCACGC | 0.359 ± 0.037 |
| TATTACCA | -0.00451 ± 0.042 |
| CTCCTAGC | -0.00411 ± 0.048 |
| ACGAATAG | -0.0204 ± 0.0012 |
| CCAGTAGG | 0.189 ± 0.012 |
| ACTCTCCG | -0.0225 ± 0.053 |
| ACCCACTG | -0.181 ± 0.077 |
| CAGTACCC | -0.0243 ± 0.0012 |
| ACCTAAAA | -0.121 ± 0.016 |
| GGCGTTCA | -0.0881 ± 0.067 |
| GCGGTAGA | -0.0144 ± 0.029 |
| TATACAGA | -0.215 ± 0.013 |
| CGCATACA | -0.108 ± 0.035 |
| ACTCTTAT | -0.0294 ± 0.038 |
| TCAGGACA | -0.0721 ± 0.0019 |
| CGCGTCTC | 0.0854 ± 0.12 |
| CATCGCAC | 0.376 ± 0.019 |
| GACCGTTA | 0.0682 ± 0.01 |
| AGTGTTTC | 0.141 ± 0.03 |

| Sequence | PBM E-score of 8-mer |
| --- | --- |
| TGCTCACA | 0.3801 ± 0.0011 |
| AGTTGAAC | -0.00466 ± 0.11 |
| ATACTCGG | 0.0184 ± 0.02 |
| AAGAATAC | -0.12 ± 0.087 |
| GACAATTA | 0.029 ± 0.11 |
| ACGAGGCG | 0.127 ± 0.053 |
| CCGAGGAG | -0.101 ± 0.019 |
| CGGAGTAG | -0.211 ± 0.031 |
| AGATAGCT | 0.00722 ± 0.035 |
| ACTGTGTC | 0.173 ± 0.034 |
| ACGAACAA | 0.0508 ± 0.036 |
| AATTAGGG | -0.173 ± 0.016 |
| AGTGTAAC | 0.24 ± 0.014 |
| CACGCACA | 0.207 ± 0.016 |
| GCCACACA | 0.335 ± 0.0096 |
| GAAGAATA | -0.131 ± 0.0024 |
| CGGGGACG | -0.082 ± 0.012 |
| AGGGAGCC | -0.14 ± 0.027 |
| ACAATCAC | 0.187 ± 0.051 |
| CTGGCTAA | -0.0662 ± 0.039 |
| CAATGGTA | -0.0293 ± 0.0032 |
| GCAGGCGC | 0.172 ± 0.029 |
| ATTCGAAC | -0.178 ± 0.018 |
| GCGCACGC | 0.201 ± 0.042 |
| TGGATGAA | -0.1666 ± 0.0014 |

| Sequence | PBM E-score of 8-mer |
| --- | --- |
| ACTTACGC | 0.142 ± 0.009 |
| CGCCCCCG | -0.161 ± 0.043 |
| GACTCTGA | -0.0787 ± 0.071 |
| GTCGGGGA | -0.0893 ± 0.0039 |
| AAGGCCCC | -0.291 ± 0.089 |
| GACCAGAA | -0.0976 ± 0.044 |
| GCGAGGCC | 0.227 ± 0.045 |
| ACCAACCG | -0.0483 ± 0.074 |
| GCCGGGCC | -0.177 ± 0.053 |
| ACGAATAA | -0.0327 ± 0.0049 |
| GGGCCTTA | -0.277 ± 0.06 |
| AGGTCTCG | 0.0437 ± 0.019 |
| GTTTCGAA | -0.0969 ± 0.0012 |
| AGCCCCCA | -0.171 ± 0.033 |
| TCCTTGCA | -0.0806 ± 0.04 |
| GTACGAAC | -0.0547 ± 0.0048 |
| GCAGAACA | -0.218 ± 0.033 |
| AGATATCC | -0.18 ± 0.048 |
| AAATGATT | -0.135 ± 0.01 |
| ATGTCAGA | -0.15 ± 0.011 |
| CTACTGGA | -0.0141 ± 0.0028 |
| TCCGTGAA | 0.16 ± 0.012 |

Reference: the supplement of paper PMC4166925
